# Reference: publication PMC4336329 (PLoS ONE, 2015)
# Out of some 310,000 compounds screened, about 14,000 (4.5%) showed an effect of 50% or more. The effect is printed as a negative number. The list shows a part of the results.
# Target: human ether-à-go-go-related gene (hERG) potassium channel (human, UniProt Q12809)
# Assay: primary screen, population patch clamp on CHO cells stably expressing hERG
# 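Further: peak tail current of the secondary pulse compared with the same well before compound.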
# Chain of human ether-à-go-go-related gene (hERG) potassium channel (Q12809 whole entry, looked up): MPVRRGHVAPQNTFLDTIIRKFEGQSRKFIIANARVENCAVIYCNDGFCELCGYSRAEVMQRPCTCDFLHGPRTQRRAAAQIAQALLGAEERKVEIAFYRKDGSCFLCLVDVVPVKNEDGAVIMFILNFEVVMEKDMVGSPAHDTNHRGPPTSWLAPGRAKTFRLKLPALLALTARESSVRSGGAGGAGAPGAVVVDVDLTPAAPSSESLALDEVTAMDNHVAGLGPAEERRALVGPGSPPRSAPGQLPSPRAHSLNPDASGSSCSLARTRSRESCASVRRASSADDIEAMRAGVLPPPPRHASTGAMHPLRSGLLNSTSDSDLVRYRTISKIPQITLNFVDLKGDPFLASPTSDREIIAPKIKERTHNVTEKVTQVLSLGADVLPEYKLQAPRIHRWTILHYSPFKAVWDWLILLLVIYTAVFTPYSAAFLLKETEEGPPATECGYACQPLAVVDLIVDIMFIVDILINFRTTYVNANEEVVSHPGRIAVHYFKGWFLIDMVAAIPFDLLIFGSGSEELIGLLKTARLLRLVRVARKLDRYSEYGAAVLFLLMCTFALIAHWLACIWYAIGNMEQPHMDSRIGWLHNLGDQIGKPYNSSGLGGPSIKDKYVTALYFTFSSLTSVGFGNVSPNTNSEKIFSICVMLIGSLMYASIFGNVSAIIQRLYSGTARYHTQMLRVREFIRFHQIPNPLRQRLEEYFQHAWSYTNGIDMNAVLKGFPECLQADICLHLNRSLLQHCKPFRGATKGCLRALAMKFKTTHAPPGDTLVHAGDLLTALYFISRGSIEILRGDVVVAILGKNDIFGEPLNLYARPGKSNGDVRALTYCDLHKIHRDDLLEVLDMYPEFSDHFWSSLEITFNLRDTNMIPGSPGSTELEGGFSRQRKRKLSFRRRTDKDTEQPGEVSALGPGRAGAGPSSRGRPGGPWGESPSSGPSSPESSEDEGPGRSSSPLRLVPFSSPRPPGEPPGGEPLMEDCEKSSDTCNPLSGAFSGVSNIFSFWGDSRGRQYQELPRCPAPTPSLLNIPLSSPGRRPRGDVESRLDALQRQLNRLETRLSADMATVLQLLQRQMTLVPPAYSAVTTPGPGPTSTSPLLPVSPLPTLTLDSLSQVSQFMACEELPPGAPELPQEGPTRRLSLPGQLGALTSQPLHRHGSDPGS
row,SMILES,"hERG current change (%, negative = inhibition) at 10uM [%]"
1,CC(/C=N/NC(=O)CSc1nc2ccccc2n1C)=C\c1ccco1,-19.6
2,O=C(CN(CCN1CCOCC1)C(=O)Cn1nnc(-c2ccc(F)cc2)n1)NC1CCCCC1,-4.75
3,CCOC(=O)c1cc(NC(=O)c2cccnc2)ccn1,-1.85
4,COc1ccccc1CCC(=O)OCC(=O)c1c(N)n(CC(C)C)c(=O)n(C)c1=O,-70.3
5,Cl.c1ccc(CNc2nc(NCc3ccccc3)c3ccccc3n2)cc1,2.65
6,CC1(C)CC(c2csc(N)n2)CCO1 (stereo not shown),2.95
7,CCn1c2ccccc2c2cc(NC(=O)CNCC3CCCO3)ccc21.O=C(O)C(=O)O (stereo not shown),-28.4
8,CC(C)CC(COCc1ccc(Cl)cc1)N1CCN(C(=O)c2ccc(C(F)(F)F)cc2)CCC1=O (stereo not shown),-44.5
9,O=C(c1cccn2c(=O)c3cc(Cl)ccc3nc12)N1CCN(Cc2ccc3c(c2)OCO3)CC1,-75.2
10,Cc1cccc(CN2CCN(CC(=O)NCCCN3CCN(c4ccc(F)cc4)CC3)C2=O)c1,-69.8
11,Cc1nc2sccn2c(=O)c1CCN1CCC(=C(c2ccccc2)c2ccc(F)cc2)CC1,-78
12,N#CC(C(=O)NCc1ccccc1)c1nc2ccccc2nc1N1CCCC1 (stereo not shown),5.08
13,O=C(N1CCCCC1)N1CCN(C(=O)N(c2ccccc2)c2ccccc2)CC1,-6.59
14,COc1ccc(/C=C/C(=O)NCc2ccc3c(c2)OCO3)cc1OC,8.54
15,O=C(N/N=C\c1ccncc1)c1ccccc1O,-7.23
16,COc1cc2c(c(OC)c1OC)-c1ccc(OC)c(=O)cc1[C@@H](N(C)CC#CCO)CC2,8.03
17,Cc1ccc(S(=O)(=O)N(CC(=O)N2CCCCCC2)c2ccccc2)cc1,-1.96
18,CC1CC(C)CN(C(=O)COC(=O)c2cn(C)c3ccccc23)C1 (stereo not shown),-24.3
19,Cn1c(=O)[nH]c2cc(Cl)cnc21,7.08
20,Cc1nc2ccccc2c(=O)n1/N=C/c1ccco1,-7.16
21,CCc1ccc(S(=O)(=O)N(C(=O)c2ccncc2)c2ccc(OC(=O)c3ccncc3)cc2)cc1,-10.1
22,Cc1ccc2cc(CN(CCc3ccccc3)C(=S)NCCCN(C)C)c(=O)[nH]c2c1,-72
23,COc1ccccc1/C=C/C(=O)NC(=S)NC(C)C,-17.6
24,COc1ccc(/C=N/Nc2ccccc2C(=O)O)cc1,21.5
25,O=C(CSc1nc(C(F)(F)F)cc(=O)[nH]1)NCc1ccc2c(c1)OCO2,13.2
26,COCCNC(=O)CN1C(=O)CC(C)(C)S(=O)(=O)c2ccccc21,17.3
27,O=C(O)/C(=C/c1cccnc1)NC(=O)c1ccccc1,20.3
28,Cc1oc(-c2ccccc2F)nc1CS(=O)(=O)CC(=O)NCc1ccco1,-27.3

row,SMILES,"hERG current change (%, negative = inhibition) at 10uM [%]"
1,C#CCOCCOCCOCCNc1nc(N2CCN(C(=O)[C@H](CCCCN)n3cc([C@@H](N)CO)nn3)CC2)nc(N2CCN(C(=O)[C@H](Cc3cc4ccccc4[nH]3)n3cc([C@@H](N)CO)nn3)CC2)n1.Cl,13.8
2,CCCc1cc(=O)oc2cc(C)cc(OCC(=O)NC(Cc3ccc(Cl)cc3)C(=O)O)c12 (stereo not shown),9.45
3,Cc1[nH][nH]c(=O)c1C(c1ccc(-c2ccc(Cl)c(Cl)c2)o1)c1c(C)[nH][nH]c1=O,18
4,Cc1c(C(=O)C(=O)N2CCC3(CC2)OCCO3)c2ccccc2n1C,29.2
5,Cc1ccc(C)c(N2CCN(C3CCCCC3NS(=O)(=O)c3ccccc3)CC2)c1 (stereo not shown),9.4
6,O=C(Nc1ccc(Cl)cn1)c1cnn2cccnc12,5.81
7,CC(=O)C1=C(O)C(=O)N(CCc2ccccc2)C1c1ccccc1[N+](=O)[O-] (stereo not shown),20
8,O=C(NCCCNC(=O)c1ccc(Cl)cc1Cl)c1ccco1,-2.33
9,Cc1c(C(=O)c2ccc(Cl)cc2[N+](=O)[O-])c2ccccn2c1CCC#N,-14.9
10,NC(=O)CC(NC(=O)Cc1ccc(Br)cc1)c1ccc(N2CCc3ccccc3C2)c([N+](=O)[O-])c1 (stereo not shown),-2.08
11,Cc1occc1C(=O)Nc1c(F)cc(F)cc1Br,-0.341
12,O=C(CN1CCOCC1)Nc1ccc(-c2nc3ccccc3[nH]2)cc1,-3.15
13,O=c1c2ccccc2c(C=Nc2ccc(O)cc2)c(O)n1Cc1ccccc1,4.15
14,NC(=O)c1c(NC(=O)c2ccccc2Cl)sc2c1CCC2,15.1
15,CC(C)(C)c1cnnn1-c1ccc(C=O)cc1,9.39
16,C=CCc1cccc(/C=N/NC(=O)CNc2ccccc2)c1O,-2.16
17,CCCOC(=O)CSc1nnc(-c2ccccc2Cl)o1,-27.1
18,O=C(NCC1CC1)c1ccc2c3n(nc2c1)-c1ccc(Cl)cc1CO3,-48
19,CCC(=O)NC(Nc1sc2c(c1C(=O)OC)CCN(C)C2)(C(F)(F)F)C(F)(F)F,-16.5
20,CCOc1ccccc1OCCCC(=O)Nc1sccc1C(N)=O,-5.75
21,O=S(Cc1ccc(Br)cc1)Cc1nnc(SCc2c(F)cccc2Cl)n1-c1ccccc1 (stereo not shown),-23.1
22,C1=CC2C3C=CC(C3)C2C1 (stereo not shown),12.1
23,CCC(Sc1nc(N)c(NC(=O)c2ccc(Br)o2)c(=O)[nH]1)C(=O)O (stereo not shown),15.4
24,CC1=NNC(=O)C1Cc1ccccc1C (stereo not shown),30.9
25,CCS(=O)(=O)NC(C)c1nnc2n1-c1ccc(Br)cc1C(c1ccccc1Cl)=NC2 (stereo not shown),-30.9
26,Cc1nnc(NC(=O)C2CCCO2)s1 (stereo not shown),3.17
27,C(=N\Nc1nc(-c2ccccc2)cs1)/c1ccco1,-31.7
